Measurements: paper PMC4336329 (PLoS ONE, 2015)
Out of some 310,000 compounds screened, about 2,200 (0.71%) showed an effect of 50% or more. The effect is printed as a negative number. This is one part of the list. Where a SMILES comes first, the peptide text is derived from it. The star is where a group is joined. OBn = c1ccc(CO*)cc1

Each compound was assayed against human ether-à-go-go-related gene (hERG) potassium channel (human, UniProt Q12809) (assay: primary screen, population patch clamp on CHO cells stably expressing hERG).
Sequence of human ether-à-go-go-related gene (hERG) potassium channel (Q12809 whole entry, looked up): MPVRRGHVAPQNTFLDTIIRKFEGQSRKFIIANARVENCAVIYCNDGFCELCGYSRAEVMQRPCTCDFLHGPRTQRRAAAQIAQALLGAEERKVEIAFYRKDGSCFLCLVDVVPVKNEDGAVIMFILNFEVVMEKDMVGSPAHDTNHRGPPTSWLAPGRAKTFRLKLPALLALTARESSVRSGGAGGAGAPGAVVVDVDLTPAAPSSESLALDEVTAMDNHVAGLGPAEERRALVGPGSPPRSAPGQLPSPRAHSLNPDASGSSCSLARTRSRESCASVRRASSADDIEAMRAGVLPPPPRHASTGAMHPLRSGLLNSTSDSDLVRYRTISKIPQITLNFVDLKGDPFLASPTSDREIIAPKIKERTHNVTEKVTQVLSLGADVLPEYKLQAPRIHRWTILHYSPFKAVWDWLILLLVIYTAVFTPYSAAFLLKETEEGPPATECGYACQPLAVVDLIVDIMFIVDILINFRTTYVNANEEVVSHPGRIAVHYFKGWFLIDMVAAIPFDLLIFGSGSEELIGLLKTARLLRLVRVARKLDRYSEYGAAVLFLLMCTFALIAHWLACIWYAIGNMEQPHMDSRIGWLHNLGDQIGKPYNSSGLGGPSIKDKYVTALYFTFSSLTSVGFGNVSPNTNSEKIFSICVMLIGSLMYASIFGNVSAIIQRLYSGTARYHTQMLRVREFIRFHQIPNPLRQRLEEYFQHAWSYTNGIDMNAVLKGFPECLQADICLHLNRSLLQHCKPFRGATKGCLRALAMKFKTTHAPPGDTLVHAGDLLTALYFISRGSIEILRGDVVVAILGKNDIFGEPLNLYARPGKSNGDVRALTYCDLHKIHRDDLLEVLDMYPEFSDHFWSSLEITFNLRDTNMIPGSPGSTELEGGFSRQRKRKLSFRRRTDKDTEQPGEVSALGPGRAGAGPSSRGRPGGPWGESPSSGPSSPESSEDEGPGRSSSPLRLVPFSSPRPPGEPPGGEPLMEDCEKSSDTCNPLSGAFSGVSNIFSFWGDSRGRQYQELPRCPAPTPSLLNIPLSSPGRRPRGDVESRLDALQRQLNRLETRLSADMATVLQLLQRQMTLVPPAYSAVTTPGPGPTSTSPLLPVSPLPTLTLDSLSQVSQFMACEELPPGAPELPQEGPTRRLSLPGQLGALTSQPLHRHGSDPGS

| Compound | hERG current change (%, negative = inhibition) at 1uM [%] |
| --- | --- |
| CCCCNC(=O)CSc1nccn1Cc1ccccc1 | 3.24 |
| COc1ccc(/C=N/Nc2nnc(C)n2N)cc1OC | 16 |
| Cl.c1ccc2c(N3CCNCC3)nsc2c1 | 4.28 |
| COc1cc(/C=N\Nc2nc(-c3cccs3)c(NC(C)=O)s2)ccc1O | 7.02 |
| COc1ccc(-c2nnc(N3CCC(C)CC3)c3ccccc23)cc1 | 6.74 |
| O=C(c1ccc(CN2CCOCC2)cc1)N1CCN(Cc2ccccc2)CC1 | 15.6 |
| COc1ccc(/C=N/NC(=O)CSc2ccccc2)cc1OC | -3.14 |
| CCn1c2ccccc2c2cc(CN3CCN(S(C)(=O)=O)CC3)ccc21.O=C(O)C(=O)O | 9.03 |
| CCOC(=O)C1(Cc2cccc(OC)c2)CCCN(S(=O)(=O)N(C)C)C1 (stereo not shown) | 10.7 |
| CC1=CS(=O)(=O)CC1SC1=Nc2ccccc2[NH2+]1.[Br-] (stereo not shown) | 7.34 |
| COc1ccc(NS(=O)(=O)c2ccc(N/N=C/c3ccc(N4CCOCC4)cc3)c([N+](=O)[O-])c2)cc1 | 8.5 |
| c1ccc2c(c1)OCC(c1nn3c(Cn4nnc5ccccc54)nnc3s1)O2 (stereo not shown) | 6.48 |
| CCn1c2ccccc2c2cc(NC(=O)CNCc3ccccc3OC)ccc21 | 13.7 |
| N#CCC(=N)N1CCN(c2ccccc2)CC1 | 6.41 |
| Cc1nc2ccccc2c2oc(C(=O)NCc3ccc4c(c3)OCO4)cc12 | 1.72 |
| N#CC(c1ccc(Cl)cc1)c1cccc(Cl)n1 (stereo not shown) | 13.9 |
| CC(=O)NCC(=O)N[C@@H](CC(=O)OCc1ccccc1)C(=O)OCc1ccccc1 (Ac-Gly-Asp(OBn)-OBn) | 7.23 |
| COc1ccc(C(=O)Nc2cc(S(=O)(=O)N3CCCCC3)ccc2OC)cc1 | 15.5 |
| CCc1ccc(NCc2cc3c(C)nn(-c4ccccc4)c3[nH]c2=O)cc1 | 20 |
| C=CC(C)C(C(=O)c1ccccc1)N(C)C (stereo not shown) | 22.2 |

| Compound | hERG current change (%, negative = inhibition) at 1uM [%] |
| --- | --- |
| CC1CC(C)CN(CC(O)COCc2ccccc2F)C1.Cl (stereo not shown) | -2.43 |
| CCN1/C(=C2/SC(=S)N(NC(C)=O)C2=O)Sc2ccc(OC)cc21 | 8.25 |
| C=CCn1c(O)c(N=O)c2cc(C)ccc21 | 8.91 |
| C=CCNc1nnc(Cl)c2ccccc12 | -13.1 |
| C=CCN(C(=O)Nc1ccc(F)cc1)C1CC(=O)N(c2ccc(OC)cc2)C1=O (stereo not shown) | -0.731 |
| COc1cc(C(CC(=O)N2CCCC2)c2c(OC)cc(OC)c3ccc(=O)oc23)cc(OC)c1OC (stereo not shown) | 17.4 |
| COc1ccc(C2c3c(ncn(Cc4ccco4)c3=N)Oc3ccc4ccccc4c32)cc1 (stereo not shown) | 4.97 |
| COCCn1c(=NC(=O)/C=C/c2ccccc2Cl)sc2cc(NC(C)=O)ccc21 | 1.65 |
| Fc1ccc(/C=N/Nc2nnnn2-c2ccccc2)cc1 | 6.97 |
| CCCCOCCCNC(=O)c1ccccc1OCC | 5.26 |
| COCCNC(=O)c1ccc(-n2c(SCc3ccncc3)nc3ccccc3c2=O)cc1 | 3.33 |
| COC(=O)CSc1nc2sc3c(c2c(=O)[nH]1)CCC3 | 8.7 |
| O=C(COC(=O)c1ccc(S(=O)(=O)N2CCCC2)cc1)Nc1ccccc1 | 2.33 |
| CCc1ccc2[nH]c(=O)c(C(c3nnnn3CCOC)N3CCN(c4ccc(F)cc4)CC3)cc2c1 (stereo not shown) | 1.97 |
| CC(=O)N(c1ccccc1)c1nc(/C=C/C(=O)O)cs1 | 16 |
| O=C(CN(C(=O)CNS(=O)(=O)c1ccc(F)cc1)c1ccccc1)NCc1ccco1 | 3.48 |
| COc1ccc(C(C)=O)cc1COc1cc(C)c(Cl)c(C)c1 | 12.5 |
| CC(=O)c1cc(-c2ccccc2)n(CCC(=O)NC2CCC(C)CC2)c1C (stereo not shown) | 12.5 |
| Cc1nn2cc(-c3cccc(Cl)c3)cnc2c1Br | 4.01 |
| Cc1cc(C)nc(SCc2nnc(SCC(=O)OC3CCCCC3)o2)n1 | 9.68 |

| Compound | hERG current change (%, negative = inhibition) at 1uM [%] |
| --- | --- |
| COc1cc(CNn2cn[nH]c2=S)ccc1OCC(=O)NC(C)(C)C | 9 |
| O=C(O)C1CCCN1S(=O)(=O)c1ccc2ccccc2c1 (stereo not shown) | 21 |
| CCOC(=O)C1CCN(C(=O)Nc2ccc(OCc3ccccc3)cc2)CC1 | 9.36 |
| COc1ccc(OC)c(Nc2nc(C)nc3c2oc2ccccc23)c1 | 12.7 |
| CCCCN(C(=O)c1ccc2c(c1)S(=O)(=O)N=C1CCCCCN12)c1c(N)n(CCCC)c(=O)[nH]c1=O | 13.6 |
| CC(C)CN1C(=O)C(NC(=O)C2CC2)(C(F)(F)F)C2=C1CC(C)(C)CC2=O (stereo not shown) | 7.23 |
| Cc1cccc(NC(=O)c2cc3ccccc3o2)c1 | -10.9 |
| CC(C)NS(=O)(=O)c1ccc(OCC(=O)NCC2CCCO2)c(Cl)c1 (stereo not shown) | -2.21 |
| CC1CCCCN1S(=O)(=O)c1ccc(C(=O)N2CCOCC2)cc1 (stereo not shown) | 14.9 |
| COc1ccc(-c2cc(C(=O)Nc3ccc(C)c(N)c3)c3ccccc3n2)cc1 | 13.7 |
| Cl.c1ccc2c(c1)oc1c(Nc3ccc(CN4CCOCC4)cc3)ncnc12 | -23 |
| Cc1cc(C)cc(NC(=O)C/C(N)=N/O)c1 | 11.4 |
| CC(C)(C)c1ccccc1N=Cc1ccc2ccccc2n1 | 13.7 |
| OCc1ncc(-c2ccccc2)s1 | 8.92 |
| O=C(NCCC1=CCCCC1)c1cnc2n(c1=O)CCS2 | -26 |
| c1ccc(N2CCN(c3ncnc4c3oc3ccccc34)CC2)cc1 | 13.1 |
| CC(C)(C)C(=O)NC(c1ccccc1)c1c(O)ccc2ccccc12 (stereo not shown) | 22.3 |
| COc1ccc(OCC(=O)N2CCN(S(=O)(=O)c3ccc(Cl)cc3)CC2)cc1 | -17.7 |
